Test system: streptococcus infection
Assay: Treatment of a patient suffering from a streptococcus infection (case report)
Conditions: 800 mg, 1 pill 3 times a day for 10 days

phenoxymethylpenicillinsodium
Effect on streptococcus infection after a first treatment: no effect

— patent publication US20190117713A1, “ANTIBACTERIAL COMPOSITION” (FermBiotics Holding ApS, priority 2016, published 2019)
